Molecular target: T1, GST-tagged FMN2 spindle-periphery localization domain (GST-SLD) (mouse, UniProt Q9JL04 275-734)
T1 sequence (looked up): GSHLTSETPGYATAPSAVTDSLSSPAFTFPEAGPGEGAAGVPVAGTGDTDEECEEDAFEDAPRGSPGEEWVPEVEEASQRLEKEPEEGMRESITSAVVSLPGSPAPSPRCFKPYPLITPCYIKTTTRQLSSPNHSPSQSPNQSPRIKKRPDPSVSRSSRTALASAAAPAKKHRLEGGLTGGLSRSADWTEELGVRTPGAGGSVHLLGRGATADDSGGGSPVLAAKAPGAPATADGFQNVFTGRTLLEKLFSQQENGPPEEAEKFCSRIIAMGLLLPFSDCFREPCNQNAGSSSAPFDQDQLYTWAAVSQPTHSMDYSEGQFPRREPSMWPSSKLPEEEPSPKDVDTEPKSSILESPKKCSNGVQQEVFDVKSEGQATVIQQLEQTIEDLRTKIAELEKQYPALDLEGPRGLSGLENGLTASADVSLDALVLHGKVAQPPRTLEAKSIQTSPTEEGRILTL
Experiment: pull-down

binding result: binds
B1: His-tagged FMN2 FH2 domain ([…]) (domain or fragment)
chain: not shown

From article PMC9549573 (Current biology : CB, 2022)
